Results: publication PMC4336329 (PLoS ONE, 2015)
The campaign covered roughly 310,000 compounds. About 14,000 (4.5%) showed an effect of 50% or more. Effects have a minus sign here. Some of the results follow.

molecular target: human ether-à-go-go-related gene (hERG) potassium channel (human, UniProt Q12809); assay: primary screen, population patch clamp on CHO cells stably expressing hERG
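Also: peak tail current of the secondary pulse compared with the same well before compound.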

Sequence of human ether-à-go-go-related gene (hERG) potassium channel (Q12809 whole entry, looked up): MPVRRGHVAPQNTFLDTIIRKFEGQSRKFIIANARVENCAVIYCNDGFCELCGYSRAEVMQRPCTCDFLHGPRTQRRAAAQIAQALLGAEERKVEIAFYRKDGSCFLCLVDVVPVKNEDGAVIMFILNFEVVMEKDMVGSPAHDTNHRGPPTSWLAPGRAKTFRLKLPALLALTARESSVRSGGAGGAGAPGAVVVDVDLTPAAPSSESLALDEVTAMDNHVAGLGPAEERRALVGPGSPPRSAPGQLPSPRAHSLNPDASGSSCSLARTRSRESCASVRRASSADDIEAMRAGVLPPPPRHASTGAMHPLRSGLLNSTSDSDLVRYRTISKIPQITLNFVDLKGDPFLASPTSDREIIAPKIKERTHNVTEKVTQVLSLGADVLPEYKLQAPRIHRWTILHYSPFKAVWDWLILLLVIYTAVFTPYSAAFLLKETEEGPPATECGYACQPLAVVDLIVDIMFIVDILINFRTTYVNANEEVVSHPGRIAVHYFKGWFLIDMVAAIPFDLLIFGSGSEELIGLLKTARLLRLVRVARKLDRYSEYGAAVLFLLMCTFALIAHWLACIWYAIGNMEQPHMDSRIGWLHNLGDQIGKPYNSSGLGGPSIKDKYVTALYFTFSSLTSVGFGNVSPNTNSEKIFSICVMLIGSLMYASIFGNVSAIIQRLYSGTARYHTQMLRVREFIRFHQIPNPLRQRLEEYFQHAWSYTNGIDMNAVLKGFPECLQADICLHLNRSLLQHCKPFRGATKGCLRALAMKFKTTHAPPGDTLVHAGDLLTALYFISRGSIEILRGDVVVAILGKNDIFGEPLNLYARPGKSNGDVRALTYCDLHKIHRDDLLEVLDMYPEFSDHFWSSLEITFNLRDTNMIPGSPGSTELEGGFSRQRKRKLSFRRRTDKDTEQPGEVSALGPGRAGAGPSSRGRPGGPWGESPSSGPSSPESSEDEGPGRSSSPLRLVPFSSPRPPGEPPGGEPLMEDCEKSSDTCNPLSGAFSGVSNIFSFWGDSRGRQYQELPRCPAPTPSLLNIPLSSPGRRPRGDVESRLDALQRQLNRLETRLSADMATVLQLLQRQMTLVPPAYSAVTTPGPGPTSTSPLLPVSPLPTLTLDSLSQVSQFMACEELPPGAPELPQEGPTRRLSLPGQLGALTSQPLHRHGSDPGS

Structure (SMILES) | hERG current change (%, negative = inhibition) at 10uM [%]
COc1ccc(C(=O)NN)cc1COc1ccc(Br)cc1 | -30.7
COc1ccc(S(=O)(=O)N2CCC(O)(c3ccc(Cl)cc3)CC2)cc1 | 24.2
CC1CC(C)(C)CC2(C1)NC(=O)N(CC(=O)Nc1ccc(N3CCCCC3)cc1)C2=O (stereo not shown) | 1.47
CCN1CCN(S(=O)(=O)c2ccc(Cl)c(C(=O)Nc3ccc(C(=O)N(CC)CC)cc3)c2)CC1 | 0.597
O=C(CCNS(=O)(=O)c1ccccc1C(F)(F)F)NNC(=O)C1COc2ccccc2O1 (stereo not shown) | 6.13
O=C(c1ccccc1)N1CCN(C(=S)NCc2ccc3c(c2)OCO3)CC1 | -59.4
CC(C)C(C)NC(=O)CN1C(=O)NC2(CCCCCC2)C1=O (stereo not shown) | 23.7
Cc1nn(-c2ccccc2)nc1CNC(=O)CC(C)(C)C | 6.39
COC(=O)N/N=C\c1ccc(-c2cc(Cl)c(Cl)cc2Cl)o1 | -1.58
Cc1ccc(-n2c(SCC(N)=O)nc3c(c2=O)C2(CCCC2)Cc2ccccc2-3)cc1 | -18.1
Cc1cc(/C=N/NC(=O)Cn2c3ccccc3c(=O)c3ccccc32)c(C)n1-c1ccccc1 | 1.8
CCc1ccc(NC(=S)Nc2cc(C(=O)O)ccc2N2CC3CC(C2)c2cccc(=O)n2C3)cc1 (stereo not shown) | 32.2
Cc1cccc(OC(C)C(=O)N2CCN(Cc3ccc4c(c3)OCO4)CC2)c1 (stereo not shown) | -31.4
COc1ccc(/C=N/N2CCOCC2)cc1COc1ccc(F)cc1 | -15.3
Cc1ccc(C)c(S(=O)(=O)Nc2nc(C)c(C(=O)Nc3ccccc3)s2)c1 | 18.7
CCn1nc(C(=O)Nc2ccc(S(=O)(=O)Nc3nccs3)cc2)c2ccccc2c1=O | 3.33
O=C(O)c1cccc(-n2cccc2/C=C/[N+](=O)[O-])c1 | 15.9
COc1cc(C2C3CN(C)CC=C3C(C#N)=C(N)C2(C#N)C#N)ccc1OC(C)C (stereo not shown) | -2.29
CC(C)(C)c1nc(NCCO)c2nnn(Cc3ccccc3)c2n1 | -10.3
O=c1c2ccccc2ncn1Cc1ccc(Cl)cc1 | -12.4
CN(C(=O)COC(=O)Cn1c(C(F)(F)F)nc2ccccc21)c1c(N)n(Cc2ccccc2)c(=O)[nH]c1=O | 10.1
O=C(NCCCc1ccccc1)c1cc(COc2ccc(F)cc2Cl)on1 | 7.67

Structure (SMILES) | hERG current change (%, negative = inhibition) at 10uM [%]
COc1ccc(S(=O)(=O)N2CCCC(C(=O)NCc3ccco3)C2)cc1OC (stereo not shown) | 10.1
CS(=O)(=O)N(CC(=O)N1CCN(c2ccccc2F)CC1)C1CCCCC1 | 7.78
CCOc1ccccc1NS(=O)(=O)c1cn(C)c(=O)n(C)c1=O | -0.921
Cl.NC1=NC2(CCCCC2)N=C(Nc2ccc(Br)cc2)N1 | -2.19
O=C(Nc1ccccc1-c1nc2ccccc2s1)c1cccnc1 | 4.64
CCCn1c(CNc2ccc(Br)cc2)nc2ccccc21 | -3.82
Cc1ccc(-n2cc(-c3ccccc3)[nH]c2=O)cc1F | -0.89
CCN(CC)CCNC(=S)Nc1ccc2nc(N3CCN(C)CC3)cc(C)c2c1 | -1.04
c1ccc(-c2cc(-c3nn4c(-c5ccco5)nnc4s3)c3ccccc3n2)cc1 | -2.06
NC(=O)C1Cc2ccccc2CN1C(=O)c1cccc(Oc2ccccc2)c1 (stereo not shown) | 13.2
O=C(NC(Cc1c[nH]c2ccccc12)C(=O)O)c1ccco1 (stereo not shown) | 13.5
N#CCCN(Cc1cccnc1)C(=S)NC(=O)c1ccco1 | 26.2
S=c1[nH]nc(COc2ccccc2)n1/N=C/c1cccc(Cl)c1Cl | 11.1
CCc1cc(=O)oc2c(C)c(OCC(=O)N3CCC(C(=O)O)CC3)ccc12 | 6.67
O=Cc1c(Sc2ccccn2)nc2ccccn2c1=O | -16.3
CCOC(=O)c1cnc(SC)nc1Sc1cc(Cl)ccc1Cl | 5.46
Cc1ccccc1N1CC(C(=O)N2CCc3ccccc32)CC1=O (stereo not shown) | -0.254
Cc1nc(SCC(=O)N2CCOCC2)c2c(C)c(C)sc2n1 | 1.76
CN(C)S(=O)(=O)N1CCC(Oc2cccc(C(=O)NC3CCOC3)c2)CC1 (stereo not shown) | 2.63
N/C(CS(=O)(=O)c1ccccn1)=N\OC(=O)c1ccccc1Cl | -9.18
COc1cccc(NC(=O)COC(=O)c2ccccc2F)c1 | 13.8
CCCCCCSc1ccc(-c2nc3ccc(C)cn3c2NCc2ccccc2)cc1OC.O=C(O)C(F)(F)F | 7.47

Structure (SMILES) | hERG current change (%, negative = inhibition) at 10uM [%]
NC(N)=NC1=NC(=O)C(Cc2ccccc2Cl)S1 (stereo not shown) | 12.6
Cn1c(=O)[nH]c(NC2CCCCC2)c(N=O)c1=O | 2.77
COc1ccc(S(=O)(=O)N2CCC(C(=O)NCc3cccnc3)CC2)cc1Cl | -11.9
CCCCN(CC)CCNC(=O)c1cc2cc3ccc(Cl)cc3nc2o1 | -72.5
Cc1coc2cc3oc(=O)c(CCC(=O)O)c(C)c3cc12 | -2.01
CC(=O)c1cccc(NC(=O)Nc2cccnc2)c1 | -16.9
CCOC(=O)N1N=C(c2ccccc2)CC1(O)C(C)(F)F (stereo not shown) | 12.1
O=C(CNC(=O)c1ccc(OC(F)F)cc1)NCC1CCCO1 (stereo not shown) | 2.87
CCCOC(=O)CC1C(=O)NCCN1C(=O)OC(C)(C)C (stereo not shown) | 19.3
C=CCn1c(CSc2ccc(C)cc2)n[nH]c1=S | 10.8
CCOC(=O)C1CCCN(C(=O)c2ccc3c(=O)n(CCOC)c(=S)[nH]c3c2)C1 (stereo not shown) | -10.7
O=C(O)CC(CC(=O)Nc1ccc(F)c(Cl)c1)c1ccc(Cl)cc1Cl (stereo not shown) | 15
CCOC(=O)c1cc(-c2ccccc2)nn1Cc1cc(CC)no1 | -20
CC(Oc1ccccc1F)C(=O)NNC(=O)CC(C)c1ccccc1 (stereo not shown) | 14.8
COc1ccc(OC)c(C(O)c2nc3ccccc3n2C(C)C)c1 (stereo not shown) | 9.26
Cc1cc(C(=O)NCc2ccc(Cl)cc2)n(-c2ccccc2)n1 | -37.9
COc1c2ccoc2nc2c(OC)c(O)ccc12 | 14.4
Cc1cccc(NS(=O)(=O)c2cc(C(=O)OCC(=O)Nc3cc(C)on3)ccc2C)c1 | 0.401
CCOc1cc(C2C3=C(CCCC3=O)N(CC(=O)O)C3=C2C(=O)CCC3)ccc1OC | 19.2
CCOc1ccc(C(=O)Nc2cccc(-c3ccc4nncn4n3)c2)cc1 | 12.5
COc1cc(-c2cc(C(=O)Nc3cccc(S(=O)(=O)N(C)C)c3)c3ccccc3n2)cc(OC)c1OC | 4.81
Cc1ccc(NC(=O)CCc2nc3ccccc3[nH]2)cc1C | 1.04

Structure (SMILES) | hERG current change (%, negative = inhibition) at 10uM [%]
O=C(Nc1nnc(-c2ccco2)s1)C1CCN(S(=O)(=O)c2ccc(Cl)cc2)CC1 | 3.2
CCn1c(NC(=O)C(C)C)c2ccccc2nc1=O | 24.1
O=C1CCCN1c1ccc(S(=O)(=O)NCc2ccco2)cc1 | 3.58
Cc1ccc(C)c(NC(=S)Nc2ccc(S(=O)(=O)Nc3ncccn3)cc2)c1 | 16.2
Cc1ccc(CSc2nc3c(c(=O)[nH]2)CCC3)cc1 | 5.97
Cc1ccc(NNC(N)=S)cc1Cl | 9.1
COc1ccc(NC(=O)Nc2c(C)n(C)n(-c3ccccc3)c2=O)cc1OC | 4.25
Cc1ccnc(NCc2ccc(Cl)cc2)c1 | 0.582
O=Nc1c(O)n(Cc2c(Cl)cccc2Cl)c2ccccc12 | 21.2
Cc1ccc(-c2nc(C(=O)NCCCN3CCOCC3)cc3c2[nH]c2ccccc23)cc1 | -15
COc1cccc(/C=N/n2c(C3CCCCC3)n[nH]c2=S)c1OC | 18
COc1ccccc1C(CNC(=O)c1cccc(NS(=O)(=O)c2ccc(C)c(F)c2)c1)N1CCCC1 (stereo not shown) | -40.9
Cc1ccc(C23CC4CC(CC(C(=O)N(C)C)(C4)C2)C3)cc1 | -4.55
COc1ccccc1CNC(=O)C1CCC(=O)N1C(C)C (stereo not shown) | 21.1
N#Cc1ccc(OCC(=O)N/N=C2/CC(c3ccccc3)Oc3ccccc32)cc1 (stereo not shown) | 7.83
O=C1CCCN1c1ccc(S(=O)(=O)N2CCC(c3ccccc3)CC2)cc1 | -2.28
Cc1cc(NC(=O)c2ccccc2)nc(C)n1 | 4.11
Cc1ccccc1C(C(=O)NC1CCCCC1)N(C(=O)CNC(=O)c1ccco1)c1cccnc1 (stereo not shown) | 6.3
CN(C)C1(CNC(=O)c2cccc(S(=O)(=O)Nc3ccc(Br)cc3)c2)CCCCC1 | -66.7
CCN1CCCC1CNC(=O)Cn1cccc1C(=O)c1ccccc1C (stereo not shown) | -48.9
CC(=O)c1cccc(N(CC(=O)NC2CCCC2)C(=O)c2ccc(C)s2)c1 | 12.7
Cc1cccc(CN2CCN(c3nc4nonc4nc3NC3CC3)CC2)c1 | -4.44
